Reference: PubChem BioAssay AID1963576 (National Center for Advancing Translational Sciences (NCATS), 2024)
The campaign covered roughly 46,000 compounds. About 60 (0.1%) were called active. Another 3% or so got no clear call; they are omitted. Calls follow the shape of the dose curve; as a rule, active = well fitted inhibition curve with a large enough effect; inconclusive = small, poorly fitted or top-dose-only effect; inactive = no such curve, though single readings can be large or run the other way. This is one part of the list.

test: Primary qHTS assay for Inhibitors of ovarian cancer metastasis using an organotypic tumor microenvironment (TME) model.; also: nearly all actives have a fitted effect of over 65% in size;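 as to activity change, negative = inhibition: plate controls were DMSO wells for no effect and tomatine positive control wells for full effect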; details: SKOV3ip1-GFP adhesion/invasion on 3D omental model, fluorescence; series mostly up to 45.8 µM; activity change, negative = inhibition: at the top concentration
Outline: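 qHTS, 4-pt dose (0.36-46 umol/L); SKOV3ip1-GFP, 1,200 cells/well, no FBS; primary omental fibroblast/mesothelial co-culture 48 h pre-grown; 2 h RT + 16 h 37 C; PBS wash, 4% PFA; GFP count 488/509 nm.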

outcome, inactive:
COc1ccc(Br)cc1[C@@H]1Nc2ccc(C(=O)O)cc2[C@@H]2C=CC[C@@H]21
CCOC(=O)c1cccc(NC(=O)c2oc3c(c2C)-c2nn(CC)cc2CC3)c1
Cc1oc(-c2ccccc2F)nc1CN1CCC(C(=O)NCCc2ccccc2)CC1
COc1ccc(-c2cnc(C)o2)cc1S(=O)(=O)Nc1ccc(OC(F)(F)F)cc1
CC(C)C(=O)Nc1nc2c(s1)CC(C(C)(C)C)CC2 (centres undefined)
OCCCn1c(-c2ccc(F)cc2)csc1=Nc1ccc(F)cc1
CC(C)Oc1ccccc1NC(=O)CSc1nccn1C
COc1cccc(Cc2nc3ccccc3nc2SCC(=O)N2CCCc3ccccc32)c1
COC(=O)c1ccccc1NC(=O)c1nc(-c2ccc(Cl)cc2)n2c1CCCCC2
COC(=O)c1ccc(NC(=O)CSc2nnc3c4ccccc4n(C(C)C)c3n2)cc1
Cc1ccc(-c2nn(CC(=O)NCc3ccccc3)c3c2cnc2ccc(F)cc23)cc1C
COc1ccccc1CNC(=O)CSc1ccc(-c2sc(-c3ccccc3)nc2C)nn1
CC(=O)c1cccc(NS(=O)(=O)c2cc3c(cc2C)n(C)c(=O)c(=O)n3C)c1
Cc1cccc(N2CCN(Cc3cc(=O)oc4cc(C)ccc34)CC2C)c1 (centres undefined)
O=C(CN1C(=O)c2cccc3cccc1c23)Nc1ccccc1Br
CC(C)NC(=O)c1ccc2c(c1)nc1n2CCCCC1
O=C(/C=C/c1ccc(Cl)cc1)N1CCC(c2nc3ccccc3o2)CC1
CC(=O)c1cccc(NC(=O)CN2C(=O)CC(c3ccc(C)cc3C)=Nc3ccccc32)c1
Cc1ccc(C)c(N2CCN(S(=O)(=O)c3ccc(C(=O)N(C)C)s3)CC2)c1
CCc1cc2c(cc3c(=O)n(CC(=O)N4CCN(c5cccc(C)c5C)CC4)nc(CC)n32)s1
CCn1nnc2cc(C(=O)Nc3cc(C)ccc3C)ccc21
Cc1ccc(-c2cc3ncc4c(n3n2)-c2cc(Cl)ccc2OC4)cc1
CCN(CC)c1nn2c(=O)c(C(=O)NCCc3ccccc3C)cnc2s1
CCOc1ccc(N(C)C(=O)C2CCN(S(=O)(=O)c3c(C)noc3/C=C/c3ccc(C)cc3)CC2)cc1

Activity change, negative = inhibition, inactive:
Cc1c(Cl)cccc1-n1ncc(C(=O)NC2CCCCC2)c1C1CCN(C(=O)OC(C)(C)C)CC1 3.36%
CCCCn1cc(S(=O)(=O)c2cc(C)ccc2C)c(=O)c2cc(F)c(F)cc21 1.19%
CC(C(=O)Nc1ccc(OC(F)(F)F)cc1)N1Cc2ccccc2C1=O (centres undefined) -19.3%
COc1ccc(CNC(=O)C(C)n2nc(C)c3c(C)n(-c4ccccc4)nc3c2=O)c(OC)c1 (centres undefined) -27.8%
CCc1nn2c(=O)cc(COC(=O)c3ccccc3NC(=O)COc3ccc(C)c(C)c3)nc2s1 20.7%
Cc1ccc(C)c(N2CCN(CCCNC(=O)c3cnn(-c4ccc(F)cc4)c3C3CCN(C(=O)OC(C)(C)C)CC3)CC2)c1 -15.1%
C#CCn1c(=O)n(-c2cccc(Cl)c2C)c(=O)c2c3c(sc21)CN(C(C)=O)CC3 -0.569%
Cc1ccc(C)c(CSc2nnc(C)n3c2cc2sccc23)c1 -5.88%
CC(=O)c1ccc(-n2c(CCC(=O)O)ccc2-c2cccs2)cc1 5.54%
CCOc1ccc(CNC(=O)Cn2nc(C)c3c(C)n(-c4ccc(C)cc4)nc3c2=O)cc1 10.4%
Cc1noc(/C=C/c2ccccc2F)c1S(=O)(=O)N1CCC(C(=O)NCC(C)c2ccccc2)CC1 (centres undefined) 1.66%
COc1cc(NC(=O)C(Cc2ccccc2)NS(=O)(=O)c2cccs2)cc(OC)c1 (centres undefined) 14.5%
O=C(CS(=O)(=O)c1cccc2nsnc12)NCc1ccccc1 -0.836%
COc1cc(OC)c(NC2=C(c3ccc(C(F)(F)F)cc3)C(=O)c3ccccc32)cc1Cl -7.26%
O=C(Cn1c(=O)nc(-c2ccccc2)c2ccccc21)N1CCN(c2ccc(F)cc2)CC1 -5.78%
O=C(O)CSc1nc2ccc(NC(=O)COc3ccc(Cl)cc3)cc2s1 -13.4%
Cc1ccc(-n2c(=O)c3c(c4cc(C)ccc4n3C)n(CC(=O)c3ccc(Cl)cc3)c2=O)cc1 25.1%
CCOc1cccc(C(=O)Nc2cc(C)c(O)c(-c3nc4ncccc4o3)c2)c1 3.82%
Cc1ccc2c(=O)c(C(=O)c3ccc(F)cc3)cn(CC(=O)Nc3ccc4c(c3)OCCO4)c2n1 2.35%
Cc1ccc(NC(=O)c2ccc(CN3CC(=O)N4CCCCC4C3=O)cc2)c(C)c1 (centres undefined) 10.2%
Cc1c(NC(=O)C(C)(C)Oc2ccc(Cl)cc2)cccc1-c1nc2ccccc2o1 -0.0792%
O=C(c1ccc2c(c1)N(Cc1ccccc1)C(=O)c1ccccc1S2(=O)=O)N1CCc2ccccc21 -3.07%
COc1ccc(OC)c(-n2c3c(cc(-c4nc(-c5ccc(Cl)cc5)cs4)c2=O)C(=O)CC(C)(C)C3)c1 16.8%
CCCNC(=O)CN1C(=O)COc2ccc(S(=O)(=O)N3CCC(C)CC3)cc21 -11.2%
O=C(CSc1nccn1C1CCCC1)Nc1cc(C(F)(F)F)ccc1Cl 3.26%
CCOC(=O)c1c(NC(=O)c2cc(=O)c3cc(C)cc(C)c3o2)sc(C)c1C -3.27%
O=S(=O)(c1ccc(Cl)cc1)c1nc(-c2ccco2)oc1SCc1ccccc1F 3.89%
COC[C@H](NC(=O)c1cnc(C)s1)C(=O)N[C@@H](COC)C(=O)N[C@@H](Cc1ccccc1)C(=O)[C@@]1(C)CO1 -9.36%
CN(C(=O)CSc1nnc(COc2ccccc2)o1)c1ccccc1 -0.481%
CCC(=O)N1CCc2cc(S(=O)(=O)NC(Cc3ccccc3)C(=O)Nc3ccccc3C)ccc21 (centres undefined) 0.812%
O=C(Nc1sc2c(c1C(=O)Nc1ccccc1)CCC2)c1ccc(Br)cc1 11.6%
CCOCCCNC(=O)C(c1ccccc1)N1Cc2ccccc2C1=O (centres undefined) 7.76%
Cc1cccc(NC(=O)C(=O)NCC(c2ccc3c(c2)OCO3)N2CCN(c3ccccc3)CC2)c1 (centres undefined) 0.459%
CCOc1ccc(OCC(=O)NCCS(=O)(=O)N2CCN(c3cccc(Cl)c3)CC2)cc1 -10.6%
Cc1cccc(NC(=O)N2CCC(N3CCN(Cc4ccccc4)C(=O)C3=O)CC2)c1C -1.44%
CC(C)(C)C1CCc2onc(C(=O)Nc3sc4c(c3C#N)CCCC4)c2C1 (centres undefined) -9.26%
Cc1ccccc1N1CC(c2nnc(NC(=O)c3ccco3)s2)CC1=O (centres undefined) 7.17%
CC(C)c1ccc(CNc2nc(-c3ccco3)nn2S(=O)(=O)c2ccc(F)cc2)cc1 -3.67%
CCCC1N=C2c3ccccc3N=C(SCC(=O)NCCc3ccc(Cl)cc3)N2C1=O (centres undefined) 6.9%
CCCCNS(=O)(=O)c1ccc2nc(-c3cccnc3)cc(C(=O)NC(C)C)c2c1 -15.8%
Cn1nc(C(=O)N2CCN(c3ccccc3F)CC2)c2c1-c1ccccc1S(=O)(=O)C2 1.04%
O=C(c1cc(-c2ccc(F)cc2)on1)N1CCN(c2ccc(F)cc2)CC1 -1.16%
CCOC(=O)COc1ccc(C)cc1C(=O)c1ccn2nc(-c3ccc(Cl)cc3)cc2n1 -0.459%
Cc1oc2ncnc(N3CCOCC3)c2c1C(=O)NCCc1ccccc1 -1.23%
CCn1c(C(=O)Nc2ccc(C)cc2C)cc2sc(Cl)cc21 -0.328%
CCOC(=O)c1ccccc1NC(=O)c1cc2ccc3cccnc3c2[nH]1 1.3%
CCCOC(=O)CSc1nnc(-c2ccccc2)o1 -9.46%
CC1CCC(NC(=O)C2(C)Cc3ccccc3C(=O)N2Cc2ccc(Cl)cc2)CC1 (centres undefined) -5.71%
Cc1ccc(Nc2nc3ccc(C(=O)c4ccccc4)cc3n3c(C)nnc23)c(C)c1 -0.642%
Cc1sc2ncn(CC(=O)N(C)c3ccc(C(C)C)cc3)c(=O)c2c1S(=O)(=O)N1CCC(C)CC1 4.22%
Cc1ccc(NS(=O)(=O)c2ccc3nc(-c4ccccc4)[nH]c3c2)c(Br)c1 2.77%
CCCCN(CC)CCCNC(=O)c1cn(CC)c2ccc(S(=O)(=O)N3CCc4ccccc4C3)cc2c1=O -19.4%
CCCn1c(=O)c2sccc2n2c(CCCC(=O)N3CCN(c4cccc(Cl)c4)CC3)nnc12 -8.73%
O=C(Cn1cc(C(=O)c2ccccc2)c(=O)c2cc3c(cc21)OCCO3)Nc1ccc(F)c(F)c1 -4.31%
COc1ccc(CCNC(=O)c2cc3c(=O)n(C)c4ccccc4c3s2)cc1OC -3.95%
COc1ccc(CCNCc2c(C(=O)O)c(C)n(Cc3cccc(Cl)c3)c2C)c(OC)c1OC 8.57%
CCc1ccccc1NC(=O)CCC(=O)N1CC(C)Oc2ccc(C)cc21 (centres undefined) -8.04%
CCOc1ccc(CC(=O)NCc2ccc3c(c2)CCN3C(=O)c2ccccc2)cc1OCC 1.4%
COc1ccc(NC(=O)CC2C(=O)N(c3cccc(OC)c3)C(=O)N2CCC2=CCCCC2)cc1 (centres undefined) 1.88%
O=C(NCc1ccc(F)cc1)C(=O)Nc1ccc2nc3n(c(=O)c2c1)CCCCC3 0.276%
COc1ccc(NC(=O)CCNS(=O)(=O)c2ccc3c(c2)CCCC(=O)N3)cc1 -4.22%
COc1ccc(NC(=O)c2c(NC(=O)COc3ccccc3)sc3c2CCCCC3)cc1 0.399%
Cc1ccccc1CNC(=O)CCC(=O)N1CCSc2ccccc21 1.47%
CCOc1ccccc1CNS(=O)(=O)c1cc2c(cc1C)NC(=O)CO2 -0.0437%
O=C(Cn1cc(S(=O)(=O)Cc2ccccc2Cl)c2ccccc21)NCCc1ccccc1 -22.2%
Cc1cc(C)c(NC(=O)c2oc3c(c2C)-c2[nH]ncc2CC3)c(C)c1 -4.5%
Cc1cccc(CN2CCN(CC(=O)NCCc3ccc(Cl)cc3)C2=O)c1 -14.8%
O=C(NCc1ccc(Cl)cc1)C1CCC(CNS(=O)(=O)c2ccccc2)CC1 (centres undefined) -0.858%
O=C(Nc1ccc(N2CCN(c3ccc(F)cc3)CC2)c(C(=O)O)c1)c1cccs1 1.25%
CCOc1cc2c(cc1OCC)C(CC(=O)O)N(C(=O)Nc1ccc(Br)c(C)c1)CC2 (centres undefined) 0.366%
